Test results as given in a collection of fitness landscapes (doi:10.1016/j.celrep.2020.107928).
The full ranking holds about 81,000 sequences; the median of “one-hybrid fitness for binding NBS DNA” is about -0.1, and the highest 2% start at about 0.36. The list shows a part of the results.

B1: Caulobacter ParB omega fusion; a variant is named by its letters at X, in order, B8GW30 (parent)
chain: MESVVVGEPGMSEGRRGLGRGLSALLGEVDAAPAQAPGEQLGGSREAPIEILQRNPDQPRRTFREEDLEDLSNSIREKGVLQPILVRPSPDTAGEYQIVAGERAWRAAQRAGLKTVPIMVRELDDLAVLEIGIIENVQRADLNVLEEALSYKVLMEKFERTQENIAQTIGKSXSHVANXMRLLXLPDEVQSYLVSGELTAXHARAIAAAADPVALAKQIIEGGLSVRETEALARKAPNLSAGKSKGGRPPRVKDTDTQALESDLSSVLGLDVSIDHRGSTGTLTITYATLEQLDDLCNRLTRGI

Variants of: B1
Experiment: one-hybrid fitness for binding NBS DNA (the Noc-binding site; scaled: cognate 1, non-cognate 0); higher = stronger binding
Settings: with NBS DNA site
How it was run: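 Fitness here means the log change in variant-to-wild-type read ratio between plasmids sequenced before and after selection. That scale was set so cognate equals 1 and non-cognate equals 0. The selection was a bacterial one-hybrid screen of Caulobacter ParB libraries, four specificity codons randomised, in E. coli USO carrying a HIS3 reporter with the site 19 bp from the promoter, grown 48 hours at 37°C on M9-minus-histidine with 0.1 mM IPTG and 5 mM 3-AT.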

Variant | one-hybrid fitness for binding NBS DNA
AEHT | ≤ 0.2
IRCC | ≤ 0.2
KYWL | ≤ 0.2
DFHG | ≤ 0.2
HVWT | ≤ 0.2
RNFG | ≤ 0.2
KRES | 0.264
AGHS | ≤ 0.2
KPTY | ≤ 0.2
NPQV | ≤ 0.2
WAHC | ≤ 0.2
LSYS | ≤ 0.2
DYVG | ≤ 0.2
AFKG | ≤ 0.2
SFTG | ≤ 0.2
ENPL | ≤ 0.2
HVLW | ≤ 0.2
SMTT | ≤ 0.2
FRLY | ≤ 0.2
YIYC | ≤ 0.2
ALWR | ≤ 0.2
QHDM | ≤ 0.2
RVCR | 0.436
AVMR | ≤ 0.2
HKSD | ≤ 0.2
TPLK | ≤ 0.2

Variant | one-hybrid fitness for binding NBS DNA
STPA | ≤ 0.2
GPKC | ≤ 0.2
KRND | ≤ 0.2
RPPM | ≤ 0.2
MPQC | ≤ 0.2
YHSP | ≤ 0.2
QFYT | ≤ 0.2
PSTV | ≤ 0.2
DGNS | ≤ 0.2
DCGS | ≤ 0.2
SVKV | ≤ 0.2
APPK | ≤ 0.2
STKD | ≤ 0.2
FVES | ≤ 0.2
DGGD | ≤ 0.2
DKKW | ≤ 0.2
NFRR | ≤ 0.2
GYKC | ≤ 0.2
FHTY | ≤ 0.2
HALY | ≤ 0.2
KTEC | ≤ 0.2
PTVQ | ≤ 0.2
VASC | ≤ 0.2
KRMP | ≤ 0.2
MERN | ≤ 0.2
LSDM | ≤ 0.2

Variant | one-hybrid fitness for binding NBS DNA
YMAT | ≤ 0.2
RDTQ | ≤ 0.2
FCCG | ≤ 0.2
VKME | ≤ 0.2
CTFA | ≤ 0.2
NGDV | ≤ 0.2
RYQC | ≤ 0.2
FTML | ≤ 0.2
NESY | ≤ 0.2
ITWV | ≤ 0.2
SWKQ | ≤ 0.2
QSNI | ≤ 0.2
VHTW | ≤ 0.2
RGGA | ≤ 0.2
FKIV | ≤ 0.2
QLAQ | ≤ 0.2
YQFS | ≤ 0.2
RTIW | ≤ 0.2
YRTS | ≤ 0.2
CDHT | ≤ 0.2
QDRD | ≤ 0.2
VDEA | ≤ 0.2
HQYR | ≤ 0.2
FFPS | ≤ 0.2
ESHA | ≤ 0.2
VPPR | ≤ 0.2

Variant | one-hybrid fitness for binding NBS DNA
QNWW | ≤ 0.2
RIIL | ≤ 0.2
CTYA | ≤ 0.2
PSMC | ≤ 0.2
KGRA | ≤ 0.2
TWTT | ≤ 0.2
NMSF | ≤ 0.2
CLQG | ≤ 0.2
VRLT | ≤ 0.2
AQNC | ≤ 0.2
PRWF | ≤ 0.2
RHWV | ≤ 0.2
YPLY | ≤ 0.2
HRRT | 0.311
QVFK | ≤ 0.2
EELW | ≤ 0.2
TVRP | ≤ 0.2
QAYD | ≤ 0.2
QHRA | 0.533
GGWM | ≤ 0.2
KQRV | ≤ 0.2
RPSC | ≤ 0.2
TIDG | ≤ 0.2
MQVR | ≤ 0.2
SHKA | ≤ 0.2
WTPV | ≤ 0.2

Variant | one-hybrid fitness for binding NBS DNA
LISC | ≤ 0.2
YKGV | ≤ 0.2
PQDS | ≤ 0.2
SYDY | ≤ 0.2
FGVA | ≤ 0.2
FNTL | ≤ 0.2
HNRR | ≤ 0.2
THKV | ≤ 0.2
CRLR | ≤ 0.2
QDNV | ≤ 0.2
RLNW | ≤ 0.2
CCGS | ≤ 0.2
PVAR | ≤ 0.2
YWTC | ≤ 0.2
RNTA | ≤ 0.2
TTSI | ≤ 0.2
RNDT | ≤ 0.2
DPHA | ≤ 0.2
QEFS | ≤ 0.2
RTYN | ≤ 0.2
KSGG | ≤ 0.2
MTEI | ≤ 0.2
AYRV | ≤ 0.2
PSKC | ≤ 0.2
QRMK | 0.404
TNVQ | ≤ 0.2

Variant | one-hybrid fitness for binding NBS DNA
KYYW | ≤ 0.2
LILS | ≤ 0.2
CNRC | ≤ 0.2
TNLG | ≤ 0.2
QRGH | 0.616
PRKA | ≤ 0.2
HHPD | ≤ 0.2
QYHD | ≤ 0.2
MKCR | ≤ 0.2
KWGT | ≤ 0.2
NTMC | ≤ 0.2
DTAT | ≤ 0.2
YRME | ≤ 0.2
RFKD | ≤ 0.2
TVHV | ≤ 0.2
RSQT | 0.418
SHVR | ≤ 0.2
KHGT | ≤ 0.2
SQFA | ≤ 0.2
NYGS | ≤ 0.2
YHHR | ≤ 0.2
YMCW | ≤ 0.2
RERN | ≤ 0.2
